This passage reports Potency results from PubChem BioAssay AID360 (National Center for Advancing Translational Sciences (NCATS), 2006).

Among all 48,000 compounds or so, about 550 (1.1%) were called active. Inconclusive results (about 4%) are left out. Rule as the data show it: active = potency below about 15 µM; inconclusive = mostly about 16 µM to 33 µM; inactive = weaker than that. This is one part of the list. Bounds are passed on as bounds.
Potency is read from the fitted curve at half-maximal effect.

This experiment has as its target Lysosomal acid glucosylceramidase (Homo sapiens) (UniProt P04062). As to the kind of experiment: Glucocerebrosidase.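 Also: the screen sought inhibitors.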 The conditions noted are these: purified enzyme, resorufin glucoside fluorescence (screen aimed at inhibitors), 20 min. The method, boiled down: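 Compounds titrated against 0.2 nM normal enzyme, 30 uM resorufin beta-D-glucopyranoside substrate, citrate/phosphate buffer with taurocholate and tween-20, pH 5.9. Reaction ran 20 min at room temperature; fluorescence (Ex 548/Em 600) gave AC50.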
Sequence of UniProt P04062 (P04062 whole entry, looked up): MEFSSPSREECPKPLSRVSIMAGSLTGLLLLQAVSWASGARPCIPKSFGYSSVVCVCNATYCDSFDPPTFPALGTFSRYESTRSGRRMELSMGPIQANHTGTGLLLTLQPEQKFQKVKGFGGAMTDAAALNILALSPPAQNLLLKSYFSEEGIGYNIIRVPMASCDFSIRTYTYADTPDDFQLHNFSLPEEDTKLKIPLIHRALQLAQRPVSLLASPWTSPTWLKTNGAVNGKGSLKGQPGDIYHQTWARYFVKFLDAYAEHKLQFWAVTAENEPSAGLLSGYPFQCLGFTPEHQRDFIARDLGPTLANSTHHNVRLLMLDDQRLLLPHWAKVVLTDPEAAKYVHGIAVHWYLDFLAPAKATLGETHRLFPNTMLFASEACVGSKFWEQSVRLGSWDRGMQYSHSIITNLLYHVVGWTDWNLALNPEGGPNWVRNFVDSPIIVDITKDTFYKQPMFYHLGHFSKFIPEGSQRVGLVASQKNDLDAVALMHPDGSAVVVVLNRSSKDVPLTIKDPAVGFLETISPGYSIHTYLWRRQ
As to `O=S(=O)(c1ccc(S(=O)(=O)N2CCN(C/C=C/c3ccccc3)CC2)cc1)N1CCCC1`, the Potency was inactive: > 76.9 µM.

Take `N#Cc1c(NC(=O)CSc2ncnc3sccc23)oc(-c2ccco2)c1-c1ccco1`: the Potency entry is “inactive”.

As for `COC(=O)Cc1nc2ccccc2[nH]1`, the Potency was inactive: > 76.9 µM.

Regarding `CCSc1nc2c(c(=O)n1Cc1ccccc1)SC(C)C2` (stereo unspecified), the Potency is inactive: > 76.9 µM.

Regarding `CCCOc1ccc(C2C(=O)N(C3CCCCC3)CC(=O)N2CCCOCC)cc1OC` (stereo unspecified), the Potency is inactive: > 76.9 µM.

For the compound `Cn1nnc2cc(C(=O)N3CCSCC3)ccc21`, the Potency is inactive: > 76.9 µM.

Consider `CCN1CCN(C(c2ccccc2)c2nnnn2CCc2ccc(OC)c(OC)c2)CC1` (stereo unspecified), for which the Potency was inactive: > 76.9 µM.

On to `S=c1nc(C2CC2)[nH]c2ccccc12`, for which the Potency is inactive: > 76.9 µM.

As to `COc1ccccc1-c1nc(C#N)c(N2CCN(c3cccc(Cl)c3)CC2)o1`, the Potency was inactive: > 76.9 µM.

Turning to `Cc1cccc(N(C(=O)Cn2nnc3ccccc32)C(C(=O)NCc2ccco2)c2ccncc2)c1` (stereo unspecified), the Potency was inactive: > 76.9 µM.

On to `Cn1c(=O)c(C(=O)CN2CCCc3ccccc32)c(N)n(Cc2ccccc2)c1=O`, for which the Potency was inactive: > 76.9 µM.

For the compound `Cc1ccc(CNc2ncc(-c3ccc4c(c3)OCO4)n2C)cc1`, the Potency is inactive: > 76.9 µM.

On to `COC(=O)C1=C(C)N(CCC2=CCCCC2)C(=O)C1`, for which the Potency was inactive: > 76.9 µM.

Regarding `CC1CCCCN1C(=O)CSc1nc2cc3c(cc2c(=O)n1Cc1ccc2c(c1)OCO2)OCO3` (stereo unspecified), the Potency result is “inactive”.

For the compound `COc1cccc(C2C=C(c3cccs3)Nc3ncnn32)c1OC` (stereo unspecified), the Potency was inactive: > 76.9 µM.

Consider `O=C(O)C1CCCCC1C(=O)NCCCCc1ccccc1` (stereo unspecified), for which the Potency was inactive: > 76.9 µM.

For `CCOC(=O)COc1ccc(C(=O)c2ccccc2)c(O)c1`, the Potency is inactive: > 76.9 µM.

As for `N#CCC(=O)N1CCn2c1nc1ccccc12`, the Potency was inactive: > 76.9 µM.

Take `O=C(CN1C2=NCCCN2c2ccccc21)c1ccc2c(c1)OCO2`: the Potency is inactive: > 76.9 µM.

As for `COc1ccccc1NC(=O)C1CCCN(S(=O)(=O)c2cccc3nsnc23)C1` (stereo unspecified), the Potency was inactive: > 76.9 µM.

`CCN1CCN(/C=N/c2nc(C)cs2)CC1`: the Potency was inactive: > 76.9 µM.

As to `COc1ccc(S(=O)(=O)NCCCCNS(=O)(=O)c2ccc(OC)cc2)cc1`, the Potency is inactive: > 76.9 µM.

As for `O=C(Nc1ccon1)c1sc2ccccc2c1Cl`, the Potency was inactive: > 76.9 µM.

For the compound `COc1ccc(NC(=O)c2ccc(S(=O)(=O)N3CCOCC3)cc2)c(OC)c1`, the Potency is inactive: > 76.9 µM.

`O=C(c1cc(-c2cccs2)on1)N1CCN(c2ccc(F)cc2)CC1`: the Potency is inactive: > 76.9 µM.

For the compound `Cc1cnc(C(=O)Nc2ccc(C(=O)N(C)C3CCCCC3)cc2)cn1`, the Potency is inactive: > 76.9 µM.
